Laboratory results as given in article PMC4336329 (PLoS ONE, 2015).
Among all 310,000 compounds or so, about 14,000 (4.5%) showed an effect of 50% or more. The effect is printed as a negative number. The list shows a part of the results.

The compounds below were run against human ether-à-go-go-related gene (hERG) potassium channel (human, UniProt Q12809) (assay: primary screen, population patch clamp on CHO cells stably expressing hERG).
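Note: peak tail current of the secondary pulse compared with the same well before compound.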

human ether-à-go-go-related gene (hERG) potassium channel, sequence (Q12809 whole entry, looked up): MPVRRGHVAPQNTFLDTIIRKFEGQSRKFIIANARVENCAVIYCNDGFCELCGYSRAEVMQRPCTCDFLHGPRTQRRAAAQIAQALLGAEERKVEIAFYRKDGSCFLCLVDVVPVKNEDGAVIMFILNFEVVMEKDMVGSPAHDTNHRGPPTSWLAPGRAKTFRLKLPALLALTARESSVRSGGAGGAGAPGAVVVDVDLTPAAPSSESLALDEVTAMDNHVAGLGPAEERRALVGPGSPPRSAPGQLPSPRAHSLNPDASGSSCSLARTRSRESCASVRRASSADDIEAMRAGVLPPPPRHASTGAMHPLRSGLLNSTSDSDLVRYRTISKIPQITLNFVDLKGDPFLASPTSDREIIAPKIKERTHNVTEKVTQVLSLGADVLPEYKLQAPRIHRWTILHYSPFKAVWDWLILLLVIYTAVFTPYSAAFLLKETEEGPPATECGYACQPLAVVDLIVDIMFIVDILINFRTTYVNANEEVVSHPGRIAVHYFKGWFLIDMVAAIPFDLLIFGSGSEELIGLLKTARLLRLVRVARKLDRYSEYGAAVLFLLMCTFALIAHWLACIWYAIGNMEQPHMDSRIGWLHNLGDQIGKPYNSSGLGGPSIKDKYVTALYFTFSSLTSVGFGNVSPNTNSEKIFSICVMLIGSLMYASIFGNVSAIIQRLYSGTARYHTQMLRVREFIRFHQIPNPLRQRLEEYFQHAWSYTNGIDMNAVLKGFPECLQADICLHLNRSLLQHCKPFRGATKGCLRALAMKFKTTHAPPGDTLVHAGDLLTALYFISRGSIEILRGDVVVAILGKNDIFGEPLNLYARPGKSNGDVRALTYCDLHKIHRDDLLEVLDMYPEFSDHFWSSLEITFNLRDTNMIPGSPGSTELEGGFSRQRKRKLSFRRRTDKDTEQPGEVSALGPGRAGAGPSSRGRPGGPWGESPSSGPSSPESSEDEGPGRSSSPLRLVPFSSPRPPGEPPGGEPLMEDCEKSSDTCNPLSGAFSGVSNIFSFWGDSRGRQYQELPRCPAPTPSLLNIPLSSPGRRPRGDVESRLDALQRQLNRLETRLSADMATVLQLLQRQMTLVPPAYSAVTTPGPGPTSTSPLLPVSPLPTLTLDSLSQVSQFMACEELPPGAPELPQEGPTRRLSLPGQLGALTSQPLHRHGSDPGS

| Structure (SMILES) | hERG current change (%, negative = inhibition) at 10uM [%] |
| --- | --- |
| COc1ccccc1N=c1oc2cc(O)ccc2cc1C(N)=O | -14.9 |
| O=C(CCc1nnc2ccc(NCc3ccc(Cl)cc3)nn12)NC1CCCCC1 | -19.7 |
| O=C(/C=C/c1cc([N+](=O)[O-])ccc1OC(F)F)NCc1ccc(F)cc1 | -43.7 |
| CCOc1ccc(CC(=O)Nc2cc(=O)n(C)c(=O)n2C)cc1 | 25.7 |
| COC(=O)C1=C(c2cccc(OC)c2OC)C[C@@H]2CC[C@H]1N2C(=O)NCCS(C)=O (some centres unmarked) | 2.56 |
| O=C(COC(=O)COc1cccc(Br)c1)Nc1c(Cl)cccc1Cl | 18.1 |
| CN(C)c1ccc(C(CNS(=O)(=O)c2ccc(F)c(F)c2)c2c[nH]c3ccccc23)cc1 (centres unmarked) | 1.3 |
| COc1cc2cc(C(c3nnnn3C(C)(C)C)N3CCC(C)CC3)c(=O)[nH]c2cc1OC (centres unmarked) | -9.93 |
| Cc1ccc(CN(c2ccc(C(=O)N3CCc4ccccc4C3)cc2)S(C)(=O)=O)cc1 | -20.8 |
| O=C(Nc1cc(Cl)cc(Cl)c1)C1CCC(=O)N1Cc1ccccc1Cl (centres unmarked) | 8.65 |
| Cc1cc(=O)oc2cc(OCC(=O)Nc3nnc(C(C)C)s3)ccc12 | 20.3 |
| CC(C)C1S/C(=N/N=C/c2ccco2)NC1=O (centres unmarked) | 1.37 |
| NS(=O)(=O)c1ccc(Sc2nc3ccccc3s2)c([N+](=O)[O-])c1 | 3.91 |
| O/N=C1/C(=C\c2ccccc2)N2CCC1CC2 | -0.492 |
| CC(NC(=O)c1ccco1)C(c1cccs1)N1CCN(c2ccccc2F)CC1 (centres unmarked) | -22.9 |
| CC(C)(C)C(=O)NC(=S)NNC(=O)c1sc2ccccc2c1Cl | 5.79 |
| CC(C)Cn1c(S(=O)(=O)O)nc2ccccc21 | -3.47 |
| CCOC(=O)c1ccc(NC(=S)NCCc2ccc(F)cc2)cc1 | 23.2 |
| Cc1cccc(C(=O)c2cn[nH]c2-c2ccccc2O)c1 | 19.5 |
| O=C1C2C(c3ccccc3)C=CC(c3ccccc3)C2C(=O)N1CCO (centres unmarked) | -6.03 |
| CC1(C)CC(NS(=O)(=O)c2ccc(S(=O)(=O)N3CCOCC3)cc2)CCO1 (centres unmarked) | 0.423 |
| COc1ccccc1NC(=O)CSc1n[nH]c(Cc2ccccc2)n1 | 21.2 |
| CCOc1ccc(NC(=O)CCC(=O)NNC(=O)c2ccccc2Cl)cc1 | 6.46 |

| Structure (SMILES) | hERG current change (%, negative = inhibition) at 10uM [%] |
| --- | --- |
| Cc1ccc(C(C)C)c(O)c1 | 19.7 |
| CCOc1ccc(N2C(=O)c3cccnc3C2Nc2ccc(C)c(C)c2)cc1 (centres unmarked) | -17.7 |
| CSCCC(NC(=O)c1ccccc1)C(=O)N(C)CC(=O)Nc1ccc(N2CCOCC2)cc1 (centres unmarked) | 5.72 |
| CC(=O)Nc1ccc(-c2cn3cc(C)ccc3n2)cc1 | -4.93 |
| CCOC(=O)c1[nH]c2ccccc2c1NC(=O)CCN1CC(C)OC(C)C1 (centres unmarked) | -0.714 |
| COc1cccc(CN2c3ccc(Br)cc3C(=O)CS2(=O)=O)c1 | -6.61 |
| O=C1c2ccccc2NC(c2ccc(O)c(O)c2)N1c1ccccc1Cl (centres unmarked) | 19.4 |
| Cc1cccc(Cn2c(NCC(C)O)nc3c2c(=O)n(C)c(=O)n3C)c1 (centres unmarked) | 9.86 |
| COc1ccccc1-c1c(C)nn2c(N3CCN(Cc4ccccc4)CC3)cc(C)nc12 | 4.33 |
| Cc1ccc(/C=C/S(=O)(=O)Nc2ccc(C)cc2)cc1 | -7 |
| CCOC(=O)CS(=O)(=O)c1ccc(C(F)(F)F)cn1 | -8.78 |
| CCOC(=O)C1(CCCc2ccccc2)CCN(S(=O)(=O)N(C)C)CC1 | -4.73 |
| Cc1ccccc1S(=O)(=O)Cc1ccc(C(=O)NCc2ccccc2)o1 | -33.3 |
| COc1ccc(CNC(=O)C2(C)Cc3ccccc3C(=O)O2)cc1 (centres unmarked) | 14.2 |
| CC1Cc2ccccc2N1S(=O)(=O)c1cccc(C(=O)OCC(=O)NCc2ccco2)c1 (centres unmarked) | -6.65 |
| Cc1ccsc1CNC(=O)c1c(-c2ccccc2)noc1C | 1.19 |
| O=C1CC(N2CCN(c3ccc(Cl)c(Cl)c3)CC2)C(=O)N1 (centres unmarked) | -16.4 |
| Cc1cc(C)n(CC(=O)N/N=C/c2ccc3c(c2)OCO3)n1 | 3.93 |
| Cc1sc(NC(=O)c2ccco2)c(C(c2ccncc2)N2CCOCC2)c1C (centres unmarked) | -37.1 |
| CC(C)NC(=O)CSc1nc(N)c(NC(=O)c2ccco2)c(=O)[nH]1 | 14.7 |
| Cc1cccc2cc(COC(=O)c3cccs3)c(=O)[nH]c12 | -3.88 |
| c1cc(-c2nnc3sc(C4CCCCC4)nn23)ccn1 | -42.8 |
| CCOC(=O)c1oc2ccccc2c1COC(=O)C(C)NC(=O)c1ccco1 (centres unmarked) | -16.5 |

| Structure (SMILES) | hERG current change (%, negative = inhibition) at 10uM [%] |
| --- | --- |
| CCN(C(=O)CCc1ccccc1)C1CCCCC1 | 10.2 |
| Cc1ccc(S(=O)(=O)c2ccc(NC(=O)c3c(F)cccc3F)cc2)cc1 | 16.8 |
| Cc1csc(NC(=O)CSc2nnc(NC(=O)C3CC(=O)N(c4ccccc4)C3)s2)n1 (centres unmarked) | 7.17 |
| Cc1ccc(N2C(=O)C3NN=C(C(=O)OCc4ccccc4)C3C2=O)cc1 (centres unmarked) | 0.882 |
| O=C(C1=C(O)C(=O)N(c2ncccn2)C1c1ccc(F)cc1)c1ccco1 (centres unmarked) | 16.6 |
| CCCCOC(=O)Nc1nc2ccc(OC)cc2s1 | 5.33 |
| COc1ccc(-c2n[nH]c(=S)n2CC(C)C)cc1 | 13 |
| Nn1c(Nc2ccccc2)nc2ccccc21 | -1.26 |
| COc1ccccc1Nc1nc(NCC(C)C)nc(N)c1[N+](=O)[O-] | 13.7 |
| CCn1c(COC(=O)CNC(=O)c2ccccc2)nc2cc(S(=O)(=O)N(C)C)ccc21 | -8 |
| COc1ccc(CCNC(=O)CCCCC(=O)NCCc2ccc(OC)cc2)cc1 | 17.4 |
| CCOc1cccc(NC(=O)c2cnccc2C(F)(F)F)c1 | -46.4 |
| O=C(c1ccccc1F)N1CCOCC1 | 32.4 |
| O=C(N/N=C/C(Cl)=C/c1ccccc1)c1ccncc1 | -6.84 |
| O=C(NNC(=S)Nc1ccccc1)C1CCCCC1 | 56.7 |
| CC(C)c1nc(SCC(=O)N2CCCc3ccccc32)c2c(=O)n(C)c(=O)n(C)c2n1 | -10.1 |
| OCc1nnn(-c2cccc(C(F)(F)F)c2)c1CO | 13.5 |
| COc1cccc2c1OCC(CN1CCN(Cc3ccccc3F)C(CCO)C1)=C2 (centres unmarked) | -19.3 |
| COc1ccc(NC(=O)C2=C(C)NC(=O)NC2c2ccccc2[N+](=O)[O-])cc1 (centres unmarked) | 4.47 |
| O=C(N/N=C/c1ccco1)c1ccncc1 | 17.9 |
| Cc1nc(-c2ccc(NC(=O)c3ccco3)cc2)cs1 | 4.13 |
| Cc1ccccc1NCC(=O)N/N=C/c1c[nH]c2ccccc12 | 6.77 |
| COc1cc(C)ccc1OCCOc1c(C)cccc1Cl | 2.01 |

| Structure (SMILES) | hERG current change (%, negative = inhibition) at 10uM [%] |
| --- | --- |
| Cc1cc(C2C(=O)C(C(=O)c3ccc(Cl)cc3)C(=O)CC2(C)C)on1 (centres unmarked) | 3.97 |
| O=C(CSc1nnnn1-c1cccc2c1CCCC2)N1CCOCC1 | -7.92 |
| CC(C)[C@H](NC(=O)c1ccccc1)C(=O)OCC(=O)Nc1ccc(Cl)cc1C(F)(F)F | 9.75 |
| COC(=O)C(CC(C)C)N1CCC(=O)c2ccccc2S1(=O)=O (centres unmarked) | 4.93 |
| COc1ccc(CC(=O)Nc2ccc(-c3cn4cccc(C)c4n3)cc2)cc1OC | -2.29 |
| COc1ccc(/C=C2\SC(=S)N(CCC(=O)Nc3cccc(C(=O)O)c3)C2=O)cc1OC | 15.2 |
| COC(=O)CCc1nc2ccccc2[nH]c1=O | -1.09 |
| O=C(COC(=O)CCSc1ccc(Cl)cc1)NCc1ccco1 | 54.6 |
| Nc1ccc(S(=O)(=O)N2CCCC2)cc1Cl | -6.2 |
| CC(NC(=O)c1cccc(OC2CCN(C(=O)C3CC3)CC2)c1)c1ccc(F)cc1 (centres unmarked) | -35.8 |
| Cc1ccnc(N2CCN(C(=O)CSc3nc4ccccc4nc3N3CCC(C)CC3)CC2)c1 | 17.9 |
| O=C(Cn1cc(C(=O)C2CC2)c2ccccc21)NCc1ccccc1 | 3.43 |
| COc1cc(/C=C/c2cc[n+](C)cc2)ccc1OCC(=O)Nc1ccc(Cl)c(Cl)c1.[I-] | -5.84 |
| CCOC(=O)C1=NN(C(=O)Cc2ccccc2)C(O)(C(C)(C)C)C1 (centres unmarked) | 9.74 |
| Cc1cc(Cl)c2oc(C(=O)N3CCC(O)(c4ccccc4)CC3)c(C)c2c1 | 8.87 |
| COc1ccc2nc3c(cc2c1)c(NC(=O)c1cccs1)nn3CC(C)C | 4.15 |
| O=C1c2ccccc2C(=O)N1CC1c2ccccc2CCN1C(=O)N1CCOCC1 (centres unmarked) | 5.98 |
| CC(C)OC(=O)Cn1nc(C(c2ccccc2)c2ccccc2)oc1=O | -12 |
| Cc1ccc(C(=O)CC2C(=O)N(c3ccccc3)C(=S)N2c2ccccc2)cc1 (centres unmarked) | -7.04 |
| O=C1c2ccccc2C(=O)N1CCSc1nc2ccccc2c(=O)n1CCCN1CCOCC1 | -15.1 |
